# According to the supplement of paper PMC8728848:
# The other results are listed elsewhere or left out.
# B1: MAA (Maackia amurensis), P0DKL3 (protein)
# chain: MATSNSKPTQVLLATFLTFFFLLLNNVNSSDELSFTINNFVPNEADLLFQGEASVSSTGVLQLTRVENGQPQKYSVGRALYAAPVRIWDNTTGSVASFSTSFTFVVKAPNPDITSDGLAFYLAPPDSQIPSGSVSKYLGLFNNSNSDSSNQIVAVELDTYFAHSYDPWDPNYRHIGIDVNGIESIKTVQWDWINGGVAFATITYLAPNKTLIASLVYPSNQTTFSVAASVDLKEILPEWVRVGFSAATGYPTEVETHDVLSWSFTSTLEANCDAATENNVHIARYTA
# Assays:
# Experiment in all cases: glycan array binding signal (z-score within array); higher = stronger binding
# Conditions in all cases: glycan notation: IUPAC condensed, linker removed
# [1] = biological target: Gal(b1-4)GlcNAc(b1-3)Gal(b1-4)GlcNAc(b1-3)Gal(b1-4)GlcNAc(b1-3)Gal(b1-4)GlcNAc(b1-3)Gal(b1-4)GlcNAc(b1-2)Man(a1-3)[Gal(b1-4)GlcNAc(b1-3)Gal(b1-4)GlcNAc(b1-3)Gal(b1-4)GlcNAc(b1-3)Gal(b1-4)GlcNAc(b1-3)Gal(b1-4)GlcNAc(b1-2)Man(a1-6)]Man(b1-4)GlcNAc(b1-4)GlcNAc
# Method in brief: (§1)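 Arrays were curated from the Consortium for Functional Glycomics database, 3228 in total, and kept only where the protein sequence was available. Binding is expressed as a within-array Z-score. This score was averaged across arrays of the same protein sequence at different concentrations or buffers and across linkers, and negative values can be read as non-binding.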
# [2] = biological target: Gal(b1-4)GlcNAc(b1-3)Gal(b1-4)GlcNAc(b1-3)Gal(b1-4)GlcNAc(b1-3)Gal(b1-4)GlcNAc(b1-3)Gal(b1-4)GlcNAc(b1-2)Man(a1-3)[Gal(b1-4)GlcNAc(b1-3)Gal(b1-4)GlcNAc(b1-3)Gal(b1-4)GlcNAc(b1-3)Gal(b1-4)GlcNAc(b1-3)Gal(b1-4)GlcNAc(b1-2)Man(a1-6)]Man(b1-4)GlcNAc(b1-4)[Fuc(a1-6)]GlcNAc
# Method in brief: as §1
# [3] = biological target: Gal(b1-4)GlcNAc(b1-3)Gal(b1-4)GlcNAc(b1-3)Gal(b1-4)GlcNAc(b1-3)Gal(b1-4)GlcNAc(b1-3)Gal(b1-4)GlcNAc(b1-2)[Gal(b1-4)GlcNAc(b1-3)Gal(b1-4)GlcNAc(b1-3)Gal(b1-4)GlcNAc(b1-3)Gal(b1-4)GlcNAc(b1-3)Gal(b1-4)GlcNAc(b1-6)]Man(a1-6)[Gal(b1-4)GlcNAc(b1-3)Gal(b1-4)GlcNAc(b1-3)Gal(b1-4)GlcNAc(b1-3)Gal(b1-4)GlcNAc(b1-3)Gal(b1-4)GlcNAc(b1-2)Man(a1-3)]Man(b1-4)GlcNAc(b1-4)[Fuc(a1-6)]GlcNAc
# Method in brief: as §1
# [4] = biological target: Gal(b1-4)GlcNAc(b1-3)Gal(b1-4)GlcNAc(b1-3)Gal(b1-4)GlcNAc(b1-3)Gal(b1-4)GlcNAc(b1-3)Gal(b1-4)GlcNAc(b1-3)Gal(b1-4)GlcNAc(b1-2)Man(a1-3)[Gal(b1-4)GlcNAc(b1-3)Gal(b1-4)GlcNAc(b1-3)Gal(b1-4)GlcNAc(b1-3)Gal(b1-4)GlcNAc(b1-3)Gal(b1-4)GlcNAc(b1-3)Gal(b1-4)GlcNAc(b1-2)Man(a1-6)]Man(b1-4)GlcNAc(b1-4)GlcNAc
# Method in brief: as §1
# [5] = biological target: Gal(b1-4)GlcNAc(b1-3)Gal(b1-4)GlcNAc(b1-3)GalNAc
# Method in brief: as §1
# [6] = biological target: Gal(b1-4)GlcNAc(b1-3)Gal(b1-4)GlcNAc(b1-3)[Gal(b1-4)GlcNAc(b1-3)Gal(b1-4)GlcNAc(b1-6)]GalNAc
# Method in brief: as §1
# [7] = biological target: Gal(b1-4)GlcNAc(b1-3)Gal(b1-4)GlcNAc(b1-6)[Gal(b1-3)]GalNAc
# Method in brief: as §1
# [8] = biological target: Gal(b1-4)GlcNAc(b1-3)Gal(b1-4)[Fuc(a1-3)]GlcNAc(b1-3)Gal(b1-4)[Fuc(a1-3)]GlcNAc
# Method in brief: as §1
# [9] = biological target: Gal(b1-4)GlcNAc(b1-3)GalNAc
# Method in brief: as §1
# [10] = biological target: Gal(b1-4)GlcNAc(b1-3)[Fuc(a1-3)GlcNAc(b1-6)]Gal(b1-4)Glc
# Method in brief: as §1
# [11] = biological target: Gal(b1-4)GlcNAc(b1-3)[Gal(b1-4)GlcNAc(b1-6)]Gal(b1-4)GlcNAc
# Method in brief: as §1
# [12] = biological target: Gal(b1-4)GlcNAc(b1-3)[Gal(b1-4)GlcNAc(b1-6)]GalNAc
# Method in brief: as §1
# [13] = biological target: Gal(b1-4)GlcNAc(b1-3)[GlcNAc(b1-6)]Gal(b1-4)GlcNAc
# Method in brief: as §1
# [14] = biological target: Gal(b1-4)GlcNAc(b1-6)Gal(b1-4)GlcNAc
# Method in brief: as §1
# [15] = biological target: Gal(b1-4)GlcNAc(b1-6)Gal(b1-4)GlcNAc(b1-6)GalNAc
# Method in brief: as §1
# [16] = biological target: Gal(b1-4)GlcNAc(b1-6)GalNAc
# Method in brief: as §1
# [17] = biological target: Gal(b1-4)GlcNAc(b1-6)[Gal(b1-3)]GalNAc
# Method in brief: as §1
# [18] = biological target: Gal(b1-4)GlcNAc(b1-6)[Gal(b1-4)GlcNAc(b1-3)]GalNAc
# Method in brief: as §1
# [19] = biological target: Gal(b1-4)GlcNAc6P
# Method in brief: as §1
# [20] = biological target: Gal(b1-6)Gal
# Method in brief: as §1
# [21] = biological target: Gal3S(b1-3)GalNAc
# Method in brief: as §1
# [22] = biological target: Gal3S(b1-3)GlcNAc
# Method in brief: as §1
# [23] = biological target: Gal3S(b1-3)[Fuc(a1-4)]GlcNAc
# Method in brief: as §1
# [24] = biological target: Gal3S(b1-4)Glc
# Method in brief: as §1
# [25] = biological target: Gal3S(b1-4)Glc6S
# Method in brief: as §1
# [26] = biological target: Gal3S(b1-4)GlcNAc
# Method in brief: as §1
# [27] = biological target: Gal3S(b1-4)GlcNAc6S
# Method in brief: as §1
# [28] = biological target: Gal3S(b1-4)[Fuc(a1-3)]Glc6S
# Method in brief: as §1
# [29] = biological target: Gal3S(b1-4)[Fuc(a1-3)]GlcNAc
# Method in brief: as §1
# [30] = biological target: Gal3S(b1-4)[Fuc(a1-3)]GlcNAc6S
# Method in brief: as §1
# [31] = biological target: Gal3S4S(b1-4)GlcNAc
# Method in brief: as §1
# [32] = biological target: Gal3S6S(b1-4)GlcNAc
# Method in brief: as §1
# [33] = biological target: Gal3S6S(b1-4)GlcNAc6S
# Method in brief: as §1
# [34] = biological target: Gal4S(b1-4)GlcNAc
# Method in brief: as §1
# [35] = biological target: Gal4S6S(b1-4)GlcNAc
# Method in brief: as §1
# [36] = biological target: Gal6P(b1-4)GlcNAc
# Method in brief: as §1
# [37] = biological target: Gal6S(b1-3)GlcNAc
# Method in brief: as §1
binder,measurement,setting,value
B1,glycan array binding signal (z-score),[1],-0.018
same,glycan array binding signal (z-score),[2],0.211
same,glycan array binding signal (z-score),[3],0.381
same,glycan array binding signal (z-score),[4],0.445
same,glycan array binding signal (z-score),[5],0.314
same,glycan array binding signal (z-score),[6],0.197
same,glycan array binding signal (z-score),[7],0.296
same,glycan array binding signal (z-score),[8],-0.167
same,glycan array binding signal (z-score),[9],-0.205
same,glycan array binding signal (z-score),[10],-0.249
same,glycan array binding signal (z-score),[11],-0.064
same,glycan array binding signal (z-score),[12],-0.233
same,glycan array binding signal (z-score),[13],-0.232
same,glycan array binding signal (z-score),[14],-0.208
same,glycan array binding signal (z-score),[15],-0.24
same,glycan array binding signal (z-score),[16],-0.147
same,glycan array binding signal (z-score),[17],-0.182
same,glycan array binding signal (z-score),[18],-0.204
same,glycan array binding signal (z-score),[19],-0.224
same,glycan array binding signal (z-score),[20],-0.212
same,glycan array binding signal (z-score),[21],0.096
same,glycan array binding signal (z-score),[22],1.5
same,glycan array binding signal (z-score),[23],-0.215
same,glycan array binding signal (z-score),[24],5.2
same,glycan array binding signal (z-score),[25],6.87
same,glycan array binding signal (z-score),[26],6.25
same,glycan array binding signal (z-score),[27],4.71
same,glycan array binding signal (z-score),[28],0.493
same,glycan array binding signal (z-score),[29],-0.224
same,glycan array binding signal (z-score),[30],7.75
same,glycan array binding signal (z-score),[31],-0.241
same,glycan array binding signal (z-score),[32],-0.28
same,glycan array binding signal (z-score),[33],0.832
same,glycan array binding signal (z-score),[34],0.32
same,glycan array binding signal (z-score),[35],-0.264
same,glycan array binding signal (z-score),[36],-0.202
same,glycan array binding signal (z-score),[37],-0.354
